Assay [1] has as its target endogenous KRT14 of HaCaT cells (human (endogenous in HaCaT)) (UniProt P02533). Kind of assay: co-IP; endogenous KRT14 immunoprecipitated with anti-KRT14 from HaCaT and RIPK4 KO (CRISPR/Cas9) cell lysates, mouse anti-Flag as control; blots with anti-KRT5, anti-KRT14 and anti-RIPK4.
Assay [2] deals with GST-tagged KRT14 (mammalian expression) (human) (UniProt P02533). Briefly: co-IP; HEK293T cells transfected with Flag-RIPK4 constructs and GST-KRT14; GST-KRT14 immunoprecipitated with anti-GST and protein G agarose, 4 °C; blots with anti-Flag and anti-GST.
The target of a further assay is Flag-KRT5 (human) (UniProt P13647). Kind of assay: co-IP; transfected HEK293T cells; Flag-KRT5 immunoprecipitated with anti-Flag; blots with anti-Flag, anti-GST and anti-RIPK4; with or without RIPK4 overexpression.
Assay [3] has as its target GST-KRT14 (bacterial expression) (human) (UniProt P02533). Kind of assay: pull-down; GST-KRT14 from bacteria bound to GST trap beads, incubated with His-RIPK4 containing bacterial lysate 1 h at 4 °C; washes with 300 mM NaCl, 0.1% NP-40; blots with anti-RIPK4 and anti-GST; only the target purified.

Sequences of proteins named here, by UniProt entry; tags and fusion partners are left off.
UniProt P02533: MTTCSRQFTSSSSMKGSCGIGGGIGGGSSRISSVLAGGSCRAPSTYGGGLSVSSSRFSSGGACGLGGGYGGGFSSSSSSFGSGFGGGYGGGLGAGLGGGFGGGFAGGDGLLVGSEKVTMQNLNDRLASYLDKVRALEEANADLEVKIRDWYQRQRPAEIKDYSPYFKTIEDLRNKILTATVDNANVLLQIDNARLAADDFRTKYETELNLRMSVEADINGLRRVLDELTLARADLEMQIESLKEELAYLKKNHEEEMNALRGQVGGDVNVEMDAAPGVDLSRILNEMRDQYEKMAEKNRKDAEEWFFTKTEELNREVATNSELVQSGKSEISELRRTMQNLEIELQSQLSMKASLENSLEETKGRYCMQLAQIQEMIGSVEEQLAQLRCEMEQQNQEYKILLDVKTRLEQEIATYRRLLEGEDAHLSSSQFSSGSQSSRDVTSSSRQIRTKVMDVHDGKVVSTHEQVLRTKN
UniProt P13647: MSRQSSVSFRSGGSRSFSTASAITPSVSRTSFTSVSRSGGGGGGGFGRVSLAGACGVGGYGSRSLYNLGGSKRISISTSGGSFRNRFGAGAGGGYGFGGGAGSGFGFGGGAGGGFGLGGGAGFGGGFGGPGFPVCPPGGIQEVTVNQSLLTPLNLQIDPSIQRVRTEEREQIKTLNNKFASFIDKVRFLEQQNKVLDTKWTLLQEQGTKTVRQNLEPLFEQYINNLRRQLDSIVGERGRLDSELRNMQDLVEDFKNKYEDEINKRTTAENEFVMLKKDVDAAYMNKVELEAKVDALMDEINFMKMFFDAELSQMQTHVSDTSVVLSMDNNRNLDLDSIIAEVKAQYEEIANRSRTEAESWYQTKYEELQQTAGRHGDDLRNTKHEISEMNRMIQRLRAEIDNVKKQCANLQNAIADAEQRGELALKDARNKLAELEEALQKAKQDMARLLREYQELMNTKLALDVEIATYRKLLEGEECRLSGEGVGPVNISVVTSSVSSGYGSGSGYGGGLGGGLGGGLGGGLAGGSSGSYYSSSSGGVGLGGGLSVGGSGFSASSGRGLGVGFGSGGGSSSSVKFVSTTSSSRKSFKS

No constants are given. Whether binding was seen depends on the method and setting. Binding seen in cells or lysates may run through a third protein. Some binding calls cover weakened binding; strength is not graded here. For some assays here: Tags and fused reporters may be left off the sequences shown.

“endogenous KRT5 of HaCaT cells (from UniProt P13647 1-590)”: in assay [1], the binding result was “binds”.

B1: full-length Flag-tagged RIPK4 (protein, UniProt P57078-2 1-784)
chain: MEGDGGTPWALALLRTFDAGEFTGWEKVGSGGFGQVYKVRHVHWKTWLAIKCSPSLHVDDRERMELLEEAKKMEMAKFRYILPVYGICREPVGLVMEYMETGSLEKLLASEPLPWDLRFRIIHETAVGMNFLHCMAPPLLHLDLKPANILLDAHYHVKISDFGLAKCNGLSHSHDLSMDGLFGTIAYLPPERIREKSRLFDTKHDVYSFAIVIWGVLTQKKPFADEKNILHIMVKVVKGHRPELPPVCRARPRACSHLIRLMQRCWQGDPRVRPTFQEITSETEDLCEKPDDEVKETAHDLDVKSPPEPRSEVVPARLKRASAPTFDNDYSLSELLSQLDSGVSQAVEGPEELSRSSSESKLPSSGSGKRLSGVSSVDSAFSSRGSLSLSFEREPSTSDLGTTDVQKKKLVDAIVSGDTSKLMKILQPQDVDLALDSGASLLHLAVEAGQEECAKWLLLNNANPNLSNRRGSTPLHMAVERRVRGVVELLLARKISVNAKDEDQWTALHFAAQNGDESSTRLLLEKNASVNEVDFEGRTPMHVACQHGQENIVRILLRRGVDVSLQGKDAWLPLHYAAWQGHLPIVKLLAKQPGVSVNAQTLDGRTPLHLAAQRGHYRVARILIDLCSDVNVCSLLAQTPLHVAAETGHTSTARLLLHRGAGKEAMTSDGYTALHLAARNGHLATVKLLVEEKADVLARGPLNQTALHLAAAHGHSEVVEELVSADVIDLFDEQGLSALHLAAQGRHAQTVETLLRHGAHINLQSLKFQGGHGPAATLLRRSKT
For the molecule B1, the binding result in assay [2] is “binds”.

B2: RIPK4 overexpressed together with Flag-KRT5 (Figures 3A and 3B) (protein, UniProt P57078-2 1-784)
chain: MEGDGGTPWALALLRTFDAGEFTGWEKVGSGGFGQVYKVRHVHWKTWLAIKCSPSLHVDDRERMELLEEAKKMEMAKFRYILPVYGICREPVGLVMEYMETGSLEKLLASEPLPWDLRFRIIHETAVGMNFLHCMAPPLLHLDLKPANILLDAHYHVKISDFGLAKCNGLSHSHDLSMDGLFGTIAYLPPERIREKSRLFDTKHDVYSFAIVIWGVLTQKKPFADEKNILHIMVKVVKGHRPELPPVCRARPRACSHLIRLMQRCWQGDPRVRPTFQEITSETEDLCEKPDDEVKETAHDLDVKSPPEPRSEVVPARLKRASAPTFDNDYSLSELLSQLDSGVSQAVEGPEELSRSSSESKLPSSGSGKRLSGVSSVDSAFSSRGSLSLSFEREPSTSDLGTTDVQKKKLVDAIVSGDTSKLMKILQPQDVDLALDSGASLLHLAVEAGQEECAKWLLLNNANPNLSNRRGSTPLHMAVERRVRGVVELLLARKISVNAKDEDQWTALHFAAQNGDESSTRLLLEKNASVNEVDFEGRTPMHVACQHGQENIVRILLRRGVDVSLQGKDAWLPLHYAAWQGHLPIVKLLAKQPGVSVNAQTLDGRTPLHLAAQRGHYRVARILIDLCSDVNVCSLLAQTPLHVAAETGHTSTARLLLHRGAGKEAMTSDGYTALHLAARNGHLATVKLLVEEKADVLARGPLNQTALHLAAAHGHSEVVEELVSADVIDLFDEQGLSALHLAAQGRHAQTVETLLRHGAHINLQSLKFQGGHGPAATLLRRSKT
For the molecule B2, the binding entry with Flag-KRT5 (human) is given as “no binding”.

B3: His-RIPK4 (bacterial expression) (protein, UniProt P57078-2 1-784)
chain: MEGDGGTPWALALLRTFDAGEFTGWEKVGSGGFGQVYKVRHVHWKTWLAIKCSPSLHVDDRERMELLEEAKKMEMAKFRYILPVYGICREPVGLVMEYMETGSLEKLLASEPLPWDLRFRIIHETAVGMNFLHCMAPPLLHLDLKPANILLDAHYHVKISDFGLAKCNGLSHSHDLSMDGLFGTIAYLPPERIREKSRLFDTKHDVYSFAIVIWGVLTQKKPFADEKNILHIMVKVVKGHRPELPPVCRARPRACSHLIRLMQRCWQGDPRVRPTFQEITSETEDLCEKPDDEVKETAHDLDVKSPPEPRSEVVPARLKRASAPTFDNDYSLSELLSQLDSGVSQAVEGPEELSRSSSESKLPSSGSGKRLSGVSSVDSAFSSRGSLSLSFEREPSTSDLGTTDVQKKKLVDAIVSGDTSKLMKILQPQDVDLALDSGASLLHLAVEAGQEECAKWLLLNNANPNLSNRRGSTPLHMAVERRVRGVVELLLARKISVNAKDEDQWTALHFAAQNGDESSTRLLLEKNASVNEVDFEGRTPMHVACQHGQENIVRILLRRGVDVSLQGKDAWLPLHYAAWQGHLPIVKLLAKQPGVSVNAQTLDGRTPLHLAAQRGHYRVARILIDLCSDVNVCSLLAQTPLHVAAETGHTSTARLLLHRGAGKEAMTSDGYTALHLAARNGHLATVKLLVEEKADVLARGPLNQTALHLAAAHGHSEVVEELVSADVIDLFDEQGLSALHLAAQGRHAQTVETLLRHGAHINLQSLKFQGGHGPAATLLRRSKT
In the case of B3, the binding result in assay [3] is given as “binds”.

B4: kinase-dead RIPK4 (K51R), Flag-tagged (protein, UniProt P57078-2 1-784)
chain: MEGDGGTPWALALLRTFDAGEFTGWEKVGSGGFGQVYKVRHVHWKTWLAIRCSPSLHVDDRERMELLEEAKKMEMAKFRYILPVYGICREPVGLVMEYMETGSLEKLLASEPLPWDLRFRIIHETAVGMNFLHCMAPPLLHLDLKPANILLDAHYHVKISDFGLAKCNGLSHSHDLSMDGLFGTIAYLPPERIREKSRLFDTKHDVYSFAIVIWGVLTQKKPFADEKNILHIMVKVVKGHRPELPPVCRARPRACSHLIRLMQRCWQGDPRVRPTFQEITSETEDLCEKPDDEVKETAHDLDVKSPPEPRSEVVPARLKRASAPTFDNDYSLSELLSQLDSGVSQAVEGPEELSRSSSESKLPSSGSGKRLSGVSSVDSAFSSRGSLSLSFEREPSTSDLGTTDVQKKKLVDAIVSGDTSKLMKILQPQDVDLALDSGASLLHLAVEAGQEECAKWLLLNNANPNLSNRRGSTPLHMAVERRVRGVVELLLARKISVNAKDEDQWTALHFAAQNGDESSTRLLLEKNASVNEVDFEGRTPMHVACQHGQENIVRILLRRGVDVSLQGKDAWLPLHYAAWQGHLPIVKLLAKQPGVSVNAQTLDGRTPLHLAAQRGHYRVARILIDLCSDVNVCSLLAQTPLHVAAETGHTSTARLLLHRGAGKEAMTSDGYTALHLAARNGHLATVKLLVEEKADVLARGPLNQTALHLAAAHGHSEVVEELVSADVIDLFDEQGLSALHLAAQGRHAQTVETLLRHGAHINLQSLKFQGGHGPAATLLRRSKT
For the molecule B4, the binding result in assay [2] is recorded as “binds”.

B5: RIPK4 N-Ter (containing kinase domain, aa 1-292), Flag-tagged (domain or fragment, UniProt P57078-2 1-292)
chain: MEGDGGTPWALALLRTFDAGEFTGWEKVGSGGFGQVYKVRHVHWKTWLAIKCSPSLHVDDRERMELLEEAKKMEMAKFRYILPVYGICREPVGLVMEYMETGSLEKLLASEPLPWDLRFRIIHETAVGMNFLHCMAPPLLHLDLKPANILLDAHYHVKISDFGLAKCNGLSHSHDLSMDGLFGTIAYLPPERIREKSRLFDTKHDVYSFAIVIWGVLTQKKPFADEKNILHIMVKVVKGHRPELPPVCRARPRACSHLIRLMQRCWQGDPRVRPTFQEITSETEDLCEKPDD
On to B5, for which the binding result in assay [2] was “binds”.

B6: RIPK4 ID (intermediate domain, aa 278-438), Flag-tagged (domain or fragment, UniProt P57078-2 278-438)
chain: EITSETEDLCEKPDDEVKETAHDLDVKSPPEPRSEVVPARLKRASAPTFDNDYSLSELLSQLDSGVSQAVEGPEELSRSSSESKLPSSGSGKRLSGVSSVDSAFSSRGSLSLSFEREPSTSDLGTTDVQKKKLVDAIVSGDTSKLMKILQPQDVDLALDSG
B6: the binding result in assay [2] was “no binding”.

B7: RIPK4 C-Ter (containing ID and ankyrin, aa 278-784), Flag-tagged (domain or fragment, UniProt P57078-2 278-784)
chain: EITSETEDLCEKPDDEVKETAHDLDVKSPPEPRSEVVPARLKRASAPTFDNDYSLSELLSQLDSGVSQAVEGPEELSRSSSESKLPSSGSGKRLSGVSSVDSAFSSRGSLSLSFEREPSTSDLGTTDVQKKKLVDAIVSGDTSKLMKILQPQDVDLALDSGASLLHLAVEAGQEECAKWLLLNNANPNLSNRRGSTPLHMAVERRVRGVVELLLARKISVNAKDEDQWTALHFAAQNGDESSTRLLLEKNASVNEVDFEGRTPMHVACQHGQENIVRILLRRGVDVSLQGKDAWLPLHYAAWQGHLPIVKLLAKQPGVSVNAQTLDGRTPLHLAAQRGHYRVARILIDLCSDVNVCSLLAQTPLHVAAETGHTSTARLLLHRGAGKEAMTSDGYTALHLAARNGHLATVKLLVEEKADVLARGPLNQTALHLAAAHGHSEVVEELVSADVIDLFDEQGLSALHLAAQGRHAQTVETLLRHGAHINLQSLKFQGGHGPAATLLRRSKT
B7: the binding result in assay [2] was “no binding”.

The values are drawn from article PMC6713913.
